Reference: the supplement of paper PMC10126150
Values marked as one replicate rest on one cluster of the flow cell; about a third of the high ones do not repeat.

Tested on: ATP
Assay: switch fluorescence ratio, 500 uM ATP over buffer (Cy3 cluster intensity, sum of 5 cycles each) (fold (ratio)); higher = stronger signal-on switching upon ATP binding; sequences stand for … in TCGTCGGCAGCGTCAGATGTGTATAAGAGACAGTTTTTTTTTTTTTTTTTTTTTTTTT…TC
Conditions: aptamer strand: ATP DNA aptamer (quencher-CACCTGGGGGAGTATTGCGGAGGAAGG + anchor), 100 nM annealed; ATP concentration: 500 uM; one replicate
Method in brief: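 Five buffer/ATP imaging cycles were run on Cy3-labelled switching-strand clusters on a modified Illumina MiSeq flow-cell, with NaOH stripping and re-annealing between cycles. In each cycle, clusters annealed to 100 nM quencher-labelled ATP aptamer were imaged in selection buffer, then after 15 min with 500 uM ATP at 22 °C. Per cluster, the fluorescence ratio is summed target-cycle over summed buffer-cycle Cy3 intensity, averaged per switch-domain sequence. Only clusters within 100-1000 RFU were kept.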
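Note: ATP exposure 15 min at 22 °C before imaging.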

Sequence | switch fluorescence ratio
TCCTGAGTGG | 0.952
TAGAACAATA | 1.01
GGGCGTTCCG | 1
TGGCGGTC | 1.05
GGACGAGCTA | 1.07
CTCTGGCCTA | 1.02
ATAAGTCTAC | 1.04
AATAGCGAAC | 1.19
CCTATTTGT | 0.983
CAATATCAGC | 1.02
TAATGGTC | 0.891
ATTGTTTGTG | 0.972
CACGACTTTG | 1
TTGACTGTCA | 0.987
GTTTAGTCG | 1.01
GTTACAGC | 0.959
GATAGGTTAC | 1.01
GCCGGAAGAT | 1.02
TAAATAGCGC | 0.995
GTGCAAAGTG | 0.986
GAGGCTTAAA | 0.992
ACGCCATGC | 3.27
GAACACTCGA | 1.02
TTTCGCAAAA | 1.04
GTGTCGCTCT | 0.986
AGTCTCTACA | 1.01

Sequence | switch fluorescence ratio
GGGTTTCATT | 1.16
CTTGCATACC | 1.74
TGGGCTGCAT | 1.01
CGATTCGGCT | 0.967
GGCAAATACG | 1.24
TGAATATATC | 0.999
ACCGTTGTGG | 0.98
GACTGAGGAC | 1.04
TTCAGCTTTA | 0.981
ATTCCAGTCT | 0.997
CCCTTGGGCG | 1
ATCTCTTTG | 1.03
GATTCGGTAA | 1.02
TCATTGGCCT | 1.03
TTACTGGCGA | 1.01
TAAAACCCAG | 1.05
GATGGACTCT | 0.994
AAGTCAATCG | 1.07
GCTAATTACG | 1.08
CTCTGTCTCT | 1.02
GGTTCAGGCA | 0.995
AGGGTAGGCA | 1.01
TGGAAGGAAA | 1
GGCGTACCCC | 1.04
CCGCATTCAC | 2.14
CAAGTCCAGC | 1.04

Sequence | switch fluorescence ratio
ATAAAGTAAC | 1.02
ACTCTAGGGA | 1.03
CACGTAATGT | 1.34
CCAGCATGGT | 1.02
GTGGAGTGAC | 0.994
TCAGGATGAC | 1.04
TGTGGTAAGC | 0.989
ATCTTAAGC | 0.972
ACATGTGTTG | 1.03
GGAGGAAGGA | 1.04
TATAGTCCTT | 0.993
TATCGTTAGG | 0.987
ACTACTCCGC | 3.46
CGGTATATCT | 1.02
TATCTGAACC | 1.04
GCGGACATGT | 0.982
GATTAATAGG | 1.03
GGCTAAAAAT | 1.18
TATAAATTTC | 1.02
TTCGAAGATC | 1.01
AACCTCATAA | 0.977
CCGGGCA | 1.1
TCTTTATCG | 0.997
TAAAGCCAGG | 1.18
TGCCGGCGTC | 1.02
TACCGCCACC | 1.57

Sequence | switch fluorescence ratio
ACCTATATGG | 1.02
GAAACTGGAT | 0.979
GCATACCACT | 1.09
AAAATGCTAA | 0.998
TCTACTGTGA | 0.996
TAAGCTGTTC | 1
GAGTTAGGCG | 0.881
CTTACATGCT | 0.965
AGCGAGGCCC | 0.985
CGTGCGTGGT | 1.02
CGTGAGGGCA | 1.04
GTTTTCTTCC | 1.1
CGTTGAAGGT | 0.981
TTGAAATACG | 2.86
TCGAGGCGTT | 1.04
ACGGCAAAAA | 1.01
AGTTATGCTT | 1.01
CGTACTCTGG | 0.983
GGCCGTTCTT | 1.02
ACGGTGGCGG | 1.01
ACTCGTGCGC | 1.05
GGCATAGCTA | 1.01
CCTTTGTGCC | 1.04
GGTACATGTC | 1.08
TTAGTGCTCT | 0.99
GCATGTTATT | 1

Sequence | switch fluorescence ratio
AGGCGGCAGG | 1.02
ATTGTAACAT | 1.02
AGGTCCATCG | 0.991
CAAGTTAGAA | 1.01
ACTGGGTCCC | 1.01
AGTTAGGGCC | 1.05
ACGAGAAATT | 1.02
GACAAGAAAA | 0.976
TACGGGTCTG | 1
GGCTGGTGAT | 1.02
ATATGTACGG | 1.06
CCATGGCATG | 1.05
GCTGGTGCGG | 0.984
AGTGATACCG | 1.02
GGCTACGATG | 1.01
CTTACCATGT | 0.964
TTAGTCTCTC | 1.01
ATCAATGACA | 1.04
CACATAGCAA | 2.06
AAGACGAATA | 0.968
GCGCAAGGTC | 1.7
TGTCCATTAC | 1.15
GCATAAGTCA | 0.978
ACTTAGTAA | 1.07
ATTGGTCGTG | 1.06
TACTCAACAC | 1.29

Sequence | switch fluorescence ratio
AGATATAAAA | 1.02
GATAGGGTCT | 1.11
TGTCTAATGT | 0.993
CCCGCGCGGA | 1.48
CGACATTGGT | 0.99
CGATCTTATA | 0.964
CCGTTTCTTC | 1.05
CTATCGTAGG | 0.999
TCACCTTGTC | 1.1
CTGGTTGGTG | 1.1
TTCGAGCAC | 1.08
TTAAGACTAG | 1.01
TTTGCCGGCC | 0.947
AAAAAATAGC | 1.11
TGGTGTAGTC | 0.995
GATGTTTGT | 0.981
AATTCGAAGC | 1.07
CCGCAGTTTG | 4.1
GTCTTCATTT | 1.02
ACAATGGGCC | 1
TAGCAAGAGT | 1.54
ACCTACGCCC | 1.54
CCTTACGCTT | 6.13
AGGAATACGT | 1.12
TTCGGAATGA | 1.15
TTAATACTTT | 1

Sequence | switch fluorescence ratio
TGGCTGGCCG | 1.01
ATTGCCAATA | 0.955
CCCGTTCGC | 1.22
ATTTCACGCC | 1.43
TATATTCATG | 1.04
AGTTCGGACG | 1.02
TGTTTTAGCC | 0.944
GTGTTAAGTC | 0.945
AAAAAGCAGC | 0.984
GCGAGCCTTT | 0.959
GCTGGGCTCG | 1.04
CGCGTAACTG | 0.975
TAGATACTGG | 1.03
CAGTCGTGTC | 1.02
CTTATTTTGG | 0.993
TAAGAAATTC | 1
AACGACGGAC | 1.62
GAAGTACGGT | 1.18
CATACTTTG | 0.975
GGAGTAAAAC | 1.17
CCACCGAGGA | 1.22
TCCATGTCTT | 0.962
GCTGTATGC | 0.971
AGACAGCGGA | 1.02
GGCGTCCCCG | 1.04
CGTATTGTGT | 0.979

Sequence | switch fluorescence ratio
CATACTTGTG | 1
ACTCTATTTT | 1.03
CCGCCAGCGT | 2.52
CGGACATTGG | 1.02
GGTCCTTTTA | 0.987
CGTCTTTTTC | 0.953
GGAGCTGATG | 1.06
TTATTTTGT | 0.989
GGGGAGCGG | 1.02
CACGGGCGAT | 1.03
ACCTGCATGC | 1.98
TGTATAACTC | 0.94
CGCGTTCTGA | 1.03
GAGCGTTTAC | 1.3
AATATCTGAG | 1.01
GCGGGCCTAC | 1.1
CAGAACCTGT | 1.05
TGGCCAGGCG | 1.04
CTGGTGATGG | 1.02
